# Test results as given in the BET-seq Pho4 binding data (Le et al. 2018).
# This is one part of the list. These are noisy estimates, calculated here from bound and input reads.
# Biological target: T1, Pho4 (S. cerevisiae) (UniProt P07270)
# T1 sequence: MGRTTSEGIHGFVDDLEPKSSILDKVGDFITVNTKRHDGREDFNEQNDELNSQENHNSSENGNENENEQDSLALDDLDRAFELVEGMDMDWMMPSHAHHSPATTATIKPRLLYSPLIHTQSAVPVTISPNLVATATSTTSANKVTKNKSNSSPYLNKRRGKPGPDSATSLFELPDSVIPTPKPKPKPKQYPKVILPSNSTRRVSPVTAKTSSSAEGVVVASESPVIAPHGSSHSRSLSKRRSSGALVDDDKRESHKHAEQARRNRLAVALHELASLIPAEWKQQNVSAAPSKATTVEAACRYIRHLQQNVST
# Experiment: relative binding free energy (BET-seq); higher = weaker binding
# Settings: reference: library average
row,Sequence,relative binding free energy
1,GAGGGCACGTGGCTAG,-0.14 kcal/mol
2,CTGTTCACGTGTGAGG,0.44 kcal/mol
3,ATGGGCACGTGAAGAT,0.17 kcal/mol
4,GGTGTCACGTGTCATG,0.08 kcal/mol
5,GGAGTCACGTGATGTC,0.38 kcal/mol
6,GGTAACACGTGCTGGT,-0.06 kcal/mol
7,TTATACACGTGGTGCT,0.02 kcal/mol
8,TTGTCCACGTGTATGG,0.14 kcal/mol
9,ACAGGCACGTGTGGAT,0.01 kcal/mol
10,AGATGCACGTGGTGCG,-0.23 kcal/mol
11,TGGAACACGTGGAGTA,0 kcal/mol
12,TATGTCACGTGGCTCG,0.01 kcal/mol
13,AATTGCACGTGGATCG,0 kcal/mol
14,TAGTTCACGTGTTGCT,0.26 kcal/mol
15,AAATACACGTGTTAGG,0.24 kcal/mol
16,TGAAGCACGTGTTGAG,-0.04 kcal/mol
17,CTGGGCACGTGTGGTC,-0.05 kcal/mol
18,TACGTCACGTGGGCGA,0.05 kcal/mol
19,AGATACACGTGGTTAG,0.08 kcal/mol
20,GGTGACACGTGGTAGC,-0.12 kcal/mol
21,ATTTACACGTGTTGCG,0.13 kcal/mol
22,TGTAACACGTGGTGGT,-0.01 kcal/mol
23,GCGTACACGTGTTGTT,0.12 kcal/mol
24,GTTTGCACGTGACGTG,0.13 kcal/mol
25,AGAGTCACGTGGGGTC,-0.01 kcal/mol
26,GGGCGCACGTGGATGC,0.09 kcal/mol

row,Sequence,relative binding free energy
1,ACTTTCACGTGCGGGG,0.18 kcal/mol
2,TGGGACACGTGATGAT,0.23 kcal/mol
3,GGTCTCACGTGTTGTC,0.26 kcal/mol
4,CAAGTCACGTGTTTGT,0.06 kcal/mol
5,TATGTCACGTGAGGCC,0.33 kcal/mol
6,GAGGCCACGTGTGGGA,0.04 kcal/mol
7,CGTGGCACGTGTGTTA,-0.11 kcal/mol
8,AAAAGCACGTGTTTTG,-0.26 kcal/mol
9,TGCCGCACGTGGGTGG,-0.33 kcal/mol
10,AGGTGCACGTGGTCTG,-0.16 kcal/mol
11,AGCTGCACGTGGGATG,-0.26 kcal/mol
12,ATGAGCACGTGTGTAA,-0.05 kcal/mol
13,GAAATCACGTGGGTTT,0.21 kcal/mol
14,TTAAGCACGTGTTGGG,-0.11 kcal/mol
15,GGATACACGTGTTGCG,0.03 kcal/mol
16,TTATACACGTGTTGAG,0.1 kcal/mol
17,ATTCACACGTGTTTTA,0.05 kcal/mol
18,TTGGACACGTGTATGC,0.08 kcal/mol
19,AGTATCACGTGGGGCC,-0.03 kcal/mol
20,ATTAGCACGTGGGGAG,-0.19 kcal/mol
21,AGGGACACGTGCGGCG,-0.02 kcal/mol
22,GGATGCACGTGTTTTT,0.19 kcal/mol
23,TGGTTCACGTGGTTGA,0.27 kcal/mol
24,TTCTTCACGTGGTATG,0.18 kcal/mol
25,TTTAGCACGTGTAGCT,0.05 kcal/mol
26,TGTGGCACGTGCTTGC,-0.22 kcal/mol

row,Sequence,relative binding free energy
1,GTTGGCACGTGACTGG,0.16 kcal/mol
2,GGTTACACGTGGCTCT,0.16 kcal/mol
3,TTTGGCACGTGTTGCC,-0.05 kcal/mol
4,TTAAGCACGTGGGTGA,-0.24 kcal/mol
5,GTGGTCACGTGTTTGG,0.16 kcal/mol
6,ACAAGCACGTGGTAGG,-0.11 kcal/mol
7,TGGTACACGTGTCAGT,0.14 kcal/mol
8,TTTGACACGTGGTTGC,0.01 kcal/mol
9,TGAAACACGTGATTTT,0.17 kcal/mol
10,ATGCGCACGTGAGGGG,0.01 kcal/mol
11,TTGTGCACGTGGGCGA,-0.24 kcal/mol
12,ATATGCACGTGGTGAT,-0.31 kcal/mol
13,ATTTTCACGTGATGTC,0.34 kcal/mol
14,GGTCACACGTGGTGAT,0.07 kcal/mol
15,TCGGTCACGTGGTTAA,0.14 kcal/mol
16,GTGGACACGTGGGAGT,-0.05 kcal/mol
17,TGGTACACGTGTAATA,0.33 kcal/mol
18,AGGGTCACGTGCTTGT,-0.07 kcal/mol
19,TAGGTCACGTGTAGAT,0.26 kcal/mol
20,TTTTCCACGTGAATGT,0.43 kcal/mol
21,CGTATCACGTGGGAGT,0 kcal/mol
22,CGGTTCACGTGGGCGG,0.09 kcal/mol
23,GTGCGCACGTGGGAGT,-0.11 kcal/mol
24,TGGAGCACGTGGTAGA,-0.05 kcal/mol
25,TTCGGCACGTGTTATG,-0.17 kcal/mol
26,ACTATCACGTGGAGGG,0.08 kcal/mol

row,Sequence,relative binding free energy
1,ATTAGCACGTGAAGGG,0.19 kcal/mol
2,TGATTCACGTGAGGTT,0.46 kcal/mol
3,AGACTCACGTGGGTGA,0.08 kcal/mol
4,GGGATCACGTGTCGTA,0.12 kcal/mol
5,GGATTCACGTGCTTTT,0.34 kcal/mol
6,TGAAGCACGTGCAGTG,-0.1 kcal/mol
7,TGTAGCACGTGAGGCG,0.16 kcal/mol
8,AAAATCACGTGGTGGC,0.2 kcal/mol
9,TTATTCACGTGTACTT,0.07 kcal/mol
10,ATTGGCACGTGGGTTG,-0.23 kcal/mol
11,GTGTTCACGTGCTACG,0.24 kcal/mol
12,GATGGCACGTGTATTG,-0.2 kcal/mol
13,AGGGGCACGTGCTTAT,-0.2 kcal/mol
14,AGGGGCACGTGTAAGG,-0.02 kcal/mol
15,AGTTTCACGTGGGCAA,0.13 kcal/mol
16,TTGATCACGTGGGCTG,0.07 kcal/mol
17,GGATGCACGTGTGCTT,-0.05 kcal/mol
18,AGGGACACGTGGTAGT,-0.01 kcal/mol
19,ATGGGCACGTGAGTTC,0.2 kcal/mol
20,TTTCTCACGTGAGAGT,0.41 kcal/mol
21,GGTGACACGTGGAATA,0.08 kcal/mol
22,CTGTTCACGTGAGGTG,0.27 kcal/mol
23,GCGTGCACGTGAGGGC,0.26 kcal/mol
24,GGGTGCACGTGACAAG,0.14 kcal/mol
25,TTTTTCACGTGATTTA,0.26 kcal/mol
26,AGGGCCACGTGTGTGG,-0.09 kcal/mol

row,Sequence,relative binding free energy
1,ATTAACACGTGTTTAT,-0.05 kcal/mol
2,ACTAGCACGTGTGGGC,0.11 kcal/mol
3,GTGCTCACGTGGAGGC,0.13 kcal/mol
4,GCGGGCACGTGTTGGG,-0.08 kcal/mol
5,AGGGGCACGTGTTCGA,-0.2 kcal/mol
6,GATGGCACGTGCGTTT,-0.01 kcal/mol
7,TTTATCACGTGGCCTG,0.18 kcal/mol
8,ACATACACGTGTTGGT,-0.03 kcal/mol
9,GAGGGCACGTGGGTCT,-0.19 kcal/mol
10,TGTCGCACGTGGTTTC,0.01 kcal/mol
11,TTATGCACGTGTTTCT,0.04 kcal/mol
12,TGTTTCACGTGGGTGC,0.18 kcal/mol
13,GGAAACACGTGTATTG,0.12 kcal/mol
14,TCGCTCACGTGTTGGG,0.26 kcal/mol
15,TACTTCACGTGGTGTA,0.09 kcal/mol
16,TGGTTCACGTGAGGCA,0.23 kcal/mol
17,CTTGGCACGTGAATTT,0.12 kcal/mol
18,GGTATCACGTGTGGGA,0.3 kcal/mol
19,GTAAGCACGTGAGGTA,0.16 kcal/mol
20,TTCTGCACGTGTGGGC,0.11 kcal/mol
21,TTGATCACGTGTCTGT,-0.08 kcal/mol
22,TGAGTCACGTGGTCAT,-0.05 kcal/mol
23,GTATGCACGTGCTGGA,0.01 kcal/mol
24,CTTGGCACGTGTTGTA,-0.02 kcal/mol
25,TTAGTCACGTGCTTTT,-0.01 kcal/mol
26,TTAGTCACGTGGCGGG,0.1 kcal/mol

row,Sequence,relative binding free energy
1,GTTATCACGTGGTGGT,0.15 kcal/mol
2,TGTGCCACGTGTAGTT,-0.05 kcal/mol
3,GGTTACACGTGGTATA,0.04 kcal/mol
4,TAGGGCACGTGGCGGT,-0.12 kcal/mol
5,CGGGTCACGTGGGATA,0.02 kcal/mol
6,TAGAGCACGTGGAATG,-0.09 kcal/mol
7,GTTAGCACGTGGTAGC,-0.09 kcal/mol
8,GGTAGCACGTGTAGTG,0.07 kcal/mol
9,TACCTCACGTGGGGAT,0.23 kcal/mol
10,CTTGACACGTGTGTTA,0.01 kcal/mol
11,TGTAACACGTGATGGC,0.16 kcal/mol
12,GGCAGCACGTGCAGGG,-0.1 kcal/mol
13,TAGGACACGTGTGTTG,0.01 kcal/mol
14,TAATCCACGTGTGTTT,0.08 kcal/mol
15,GGCAACACGTGGTGTA,-0.08 kcal/mol
16,ATTACCACGTGGTTAT,-0.1 kcal/mol
17,GGCGTCACGTGGTTTT,0.19 kcal/mol
18,TCTTGCACGTGGTATA,-0.19 kcal/mol
19,GAAGTCACGTGTAGGC,0.26 kcal/mol
20,ATTGGCACGTGTTCGG,-0.19 kcal/mol
21,CTAGGCACGTGAGTGA,0.08 kcal/mol
22,GGTAGCACGTGTCGCG,0 kcal/mol
23,TGAAGCACGTGTGTAC,0.08 kcal/mol
24,AGCGGCACGTGTTTTT,0.13 kcal/mol
25,ACTTACACGTGGCGGT,0.18 kcal/mol
26,AGTGGCACGTGATTCA,-0.01 kcal/mol

row,Sequence,relative binding free energy
1,TAGTTCACGTGGAGTT,0.37 kcal/mol
2,GGTGCCACGTGGGGAA,-0.11 kcal/mol
3,TGGAGCACGTGGGTTC,-0.08 kcal/mol
4,TAGTGCACGTGAGATA,0.18 kcal/mol
5,TTCCTCACGTGTAGTT,0.27 kcal/mol
6,AGGTTCACGTGTAACG,0.25 kcal/mol
7,CGGGTCACGTGATATG,0.16 kcal/mol
8,ATGAGCACGTGATAGA,0.09 kcal/mol
9,GGGGACACGTGCGTGC,-0.13 kcal/mol
10,AGACGCACGTGGGCGG,-0.27 kcal/mol
11,TGCGACACGTGGTGTA,-0.07 kcal/mol
12,CTTTCCACGTGGTGTG,-0.01 kcal/mol
13,CAAGGCACGTGATGGG,-0.01 kcal/mol
14,GTTACCACGTGGTAGT,-0.11 kcal/mol
15,GGATGCACGTGCGATG,-0.1 kcal/mol
16,ATGGTCACGTGGGCTA,-0.12 kcal/mol
17,ATTATCACGTGGTGAC,0.19 kcal/mol
18,TTTGTCACGTGGACGT,0.2 kcal/mol
19,TAGGTCACGTGGAAGG,0.13 kcal/mol
20,AGAGTCACGTGTTACT,0.24 kcal/mol
21,TGTGGCACGTGGATTT,0.08 kcal/mol
22,GGGAACACGTGGGGCC,-0.01 kcal/mol
23,GGTCGCACGTGGTCTG,-0.16 kcal/mol
24,GGTCACACGTGTGTAG,0.03 kcal/mol
25,TCTTGCACGTGTTAGA,0.08 kcal/mol
26,GTTTTCACGTGAAATT,0.23 kcal/mol

row,Sequence,relative binding free energy
1,AGTGGCACGTGGGCTC,-0.21 kcal/mol
2,GTACTCACGTGCTGGT,0.19 kcal/mol
3,CGTAGCACGTGGTGGA,-0.03 kcal/mol
4,TAATTCACGTGAGCTG,0.33 kcal/mol
5,TGACGCACGTGAAGGG,0.26 kcal/mol
6,TATCGCACGTGTTTGG,-0.06 kcal/mol
7,TGTGCCACGTGTGTCA,-0.03 kcal/mol
8,GGAATCACGTGTTTTT,0.3 kcal/mol
9,GAAGTCACGTGGGTCT,-0.02 kcal/mol
10,CTAAGCACGTGGTTTG,-0.16 kcal/mol
11,GTATGCACGTGGACGT,0.03 kcal/mol
12,GGTCCCACGTGAAGGG,0.24 kcal/mol
13,TCGTTCACGTGGGGTC,0.12 kcal/mol
14,GATGGCACGTGAGAGT,0.28 kcal/mol
15,GGCTTCACGTGTTATT,0.32 kcal/mol
16,AGTAACACGTGTTGCG,0.04 kcal/mol
17,GAGATCACGTGGTGTC,0.18 kcal/mol
18,GGTCTCACGTGCTGGG,0.29 kcal/mol
19,TGATACACGTGGATTA,0.17 kcal/mol
20,ATTAACACGTGCGGTG,-0.01 kcal/mol
21,TTTTTCACGTGTTGGT,0.42 kcal/mol
22,TCGTCCACGTGGGGTG,-0.21 kcal/mol
23,GTAGCCACGTGGGGAT,-0.23 kcal/mol
24,GTTTGCACGTGGGTGT,-0.05 kcal/mol
25,CTTATCACGTGAGAGT,0.24 kcal/mol
26,GTACTCACGTGTAGGT,0.11 kcal/mol

row,Sequence,relative binding free energy
1,GTGGGCACGTGGATGG,-0.01 kcal/mol
2,TATTTCACGTGTTGGA,0.27 kcal/mol
3,GAGGCCACGTGTGGGC,0.14 kcal/mol
4,TCTTGCACGTGGCTAT,0.03 kcal/mol
5,GGAGCCACGTGTATGG,0.11 kcal/mol
6,GGGACCACGTGTGGGG,-0.01 kcal/mol
7,CGTTACACGTGGAGGG,0.03 kcal/mol
8,TGGTACACGTGCGGGG,0.1 kcal/mol
9,TGAAGCACGTGAGTGA,0.09 kcal/mol
10,AAGGGCACGTGGTAAG,-0.1 kcal/mol
11,TTTAGCACGTGTCTGG,-0.03 kcal/mol
12,ACATTCACGTGAAGGG,0.51 kcal/mol
13,ATGTTCACGTGTTTAG,0.25 kcal/mol
14,CTGTTCACGTGGTAAG,0.01 kcal/mol
15,TTGGTCACGTGGGTAC,-0.18 kcal/mol
16,TTTATCACGTGGATAG,0.13 kcal/mol
17,ATGGTCACGTGCGGAA,0.14 kcal/mol
18,GGTGACACGTGTGAGC,0.15 kcal/mol
19,TGCTACACGTGCTGGT,-0.02 kcal/mol
20,GGAATCACGTGGACGG,0.18 kcal/mol
21,TCAGACACGTGGTGTT,-0.04 kcal/mol
22,GTAGGCACGTGCTTAT,-0.04 kcal/mol
